Assay results from PMC9911399, “Two distinct binding modes provide the RNA-binding protein RbFox with extraordinary sequence specificity”.
Where a chain is given by its changes, count along the chain named. This is one part of the list.

T1: RBFOX1 RRM (Homo sapiens, UniProt Q9NWB1 109-208)
T1 sequence: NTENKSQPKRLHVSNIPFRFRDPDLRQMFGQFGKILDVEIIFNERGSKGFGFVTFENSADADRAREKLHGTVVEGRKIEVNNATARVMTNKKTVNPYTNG

B1: AGCCCGC (DNA:RNA)
RNA: GGGAGACCGGAAUUCAGAUUGUCCAGCCCGCUUAAAUCCCGUCGUAGCCACCA
DNA 1: CAATCTGAATTCCGGTCTCCC
DNA 2: TGGTGGCTACGACGGGATT
B2: CGUCUCG (DNA:RNA)
RNA: B1 RNA with A25C, C27U, C29U, G30C, C31G
DNA 1: CAATCTGAATTCCGGTCTCCC
DNA 2: TGGTGGCTACGACGGGATT
B3: CAUGUGC (DNA:RNA)
RNA: B1 RNA with A25C, G26A, C27U, C28G, C29U
DNA 1: CAATCTGAATTCCGGTCTCCC
DNA 2: TGGTGGCTACGACGGGATT
B4: CAAGUUU (DNA:RNA)
RNA: GGGAGACCGGAAUUCAGAUUGUCCCAAGUUUUUAAAUCCCGUCGUAGCCACCA
DNA 1: CAATCTGAATTCCGGTCTCCC
DNA 2: TGGTGGCTACGACGGGATT
B5: GACAGCA (DNA:RNA)
RNA: B1 RNA with A25G, G26A, C28A, C29G, G30C, C31A
DNA 1: CAATCTGAATTCCGGTCTCCC
DNA 2: TGGTGGCTACGACGGGATT
B6: GUCUGAC (DNA:RNA)
RNA: B1 RNA with A25G, G26U, C28U, C29G, G30A
DNA 1: CAATCTGAATTCCGGTCTCCC
DNA 2: TGGTGGCTACGACGGGATT
B7: CACUAGC (DNA:RNA)
RNA: B1 RNA with A25C, G26A, C28U, C29A
DNA 1: CAATCTGAATTCCGGTCTCCC
DNA 2: TGGTGGCTACGACGGGATT
B8: UCAGAAC (DNA:RNA)
RNA: B4 RNA with C25U, A26C, U29A, U30A, U31C
DNA 1: CAATCTGAATTCCGGTCTCCC
DNA 2: TGGTGGCTACGACGGGATT
B9: GAGUCCU (DNA:RNA)
RNA: B4 RNA with C25G, A27G, G28U, U29C, U30C
DNA 1: CAATCTGAATTCCGGTCTCCC
DNA 2: TGGTGGCTACGACGGGATT
B10: ACUAACA (DNA:RNA)
RNA: B1 RNA with G26C, C27U, C28A, C29A, G30C, C31A
DNA 1: CAATCTGAATTCCGGTCTCCC
DNA 2: TGGTGGCTACGACGGGATT
B11: UACCUCG (DNA:RNA)
RNA: B1 RNA with A25U, G26A, C29U, G30C, C31G
DNA 1: CAATCTGAATTCCGGTCTCCC
DNA 2: TGGTGGCTACGACGGGATT
B12: CUGGCCC (DNA:RNA)
RNA: B1 RNA with A25C, G26U, C27G, C28G, G30C
DNA 1: CAATCTGAATTCCGGTCTCCC
DNA 2: TGGTGGCTACGACGGGATT
B13: AUUGAUC (DNA:RNA)
RNA: B1 RNA with G26U, C27U, C28G, C29A, G30U
DNA 1: CAATCTGAATTCCGGTCTCCC
DNA 2: TGGTGGCTACGACGGGATT
B14: CCUGGUA (DNA:RNA)
RNA: B4 RNA with A26C, A27U, U29G, U31A
DNA 1: CAATCTGAATTCCGGTCTCCC
DNA 2: TGGTGGCTACGACGGGATT
B15: AGGGGGC (DNA:RNA)
RNA: B1 RNA with C27G, C28G, C29G
DNA 1: CAATCTGAATTCCGGTCTCCC
DNA 2: TGGTGGCTACGACGGGATT
B16: AGAUUCC (DNA:RNA)
RNA: B1 RNA with C27A, C28U, C29U, G30C
DNA 1: CAATCTGAATTCCGGTCTCCC
DNA 2: TGGTGGCTACGACGGGATT
B17: GUACCGC (DNA:RNA)
RNA: B1 RNA with A25G, G26U, C27A
DNA 1: CAATCTGAATTCCGGTCTCCC
DNA 2: TGGTGGCTACGACGGGATT
B18: CUUCGCG (DNA:RNA)
RNA: B1 RNA with A25C, G26U, C27U, C29G, G30C, C31G
DNA 1: CAATCTGAATTCCGGTCTCCC
DNA 2: TGGTGGCTACGACGGGATT
B19: GGGCCCG (DNA:RNA)
RNA: B1 RNA with A25G, C27G, G30C, C31G
DNA 1: CAATCTGAATTCCGGTCTCCC
DNA 2: TGGTGGCTACGACGGGATT
B20: GCCAUUC (DNA:RNA)
RNA: B1 RNA with A25G, G26C, C28A, C29U, G30U
DNA 1: CAATCTGAATTCCGGTCTCCC
DNA 2: TGGTGGCTACGACGGGATT
B21: AAGUAGU (DNA:RNA)
RNA: B1 RNA with G26A, C27G, C28U, C29A, C31U
DNA 1: CAATCTGAATTCCGGTCTCCC
DNA 2: TGGTGGCTACGACGGGATT
B22: GGGUGCC (DNA:RNA)
RNA: B1 RNA with A25G, C27G, C28U, C29G, G30C
DNA 1: CAATCTGAATTCCGGTCTCCC
DNA 2: TGGTGGCTACGACGGGATT
B23: ACAUCAG (DNA:RNA)
RNA: B1 RNA with G26C, C27A, C28U, G30A, C31G
DNA 1: CAATCTGAATTCCGGTCTCCC
DNA 2: TGGTGGCTACGACGGGATT
B24: CGUAUAC (DNA:RNA)
RNA: B1 RNA with A25C, C27U, C28A, C29U, G30A
DNA 1: CAATCTGAATTCCGGTCTCCC
DNA 2: TGGTGGCTACGACGGGATT
B25: AUUUAAG (DNA:RNA)
RNA: B1 RNA with G26U, C27U, C28U, C29A, G30A, C31G
DNA 1: CAATCTGAATTCCGGTCTCCC
DNA 2: TGGTGGCTACGACGGGATT
B26: GAGAUGG (DNA:RNA)
RNA: B4 RNA with C25G, A27G, G28A, U30G, U31G
DNA 1: CAATCTGAATTCCGGTCTCCC
DNA 2: TGGTGGCTACGACGGGATT
B27: UUGCGGU (DNA:RNA)
RNA: B1 RNA with A25U, G26U, C27G, C29G, C31U
DNA 1: CAATCTGAATTCCGGTCTCCC
DNA 2: TGGTGGCTACGACGGGATT
B28: AGGUCGU (DNA:RNA)
RNA: B1 RNA with C27G, C28U, C31U
DNA 1: CAATCTGAATTCCGGTCTCCC
DNA 2: TGGTGGCTACGACGGGATT
B29: GUGCAUA (DNA:RNA)
RNA: B1 RNA with A25G, G26U, C27G, C29A, G30U, C31A
DNA 1: CAATCTGAATTCCGGTCTCCC
DNA 2: TGGTGGCTACGACGGGATT
B30: GUACCGA (DNA:RNA)
RNA: B1 RNA with A25G, G26U, C27A, C31A
DNA 1: CAATCTGAATTCCGGTCTCCC
DNA 2: TGGTGGCTACGACGGGATT
B31: CUAAAAG (DNA:RNA)
RNA: B4 RNA with A26U, G28A, U29A, U30A, U31G
DNA 1: CAATCTGAATTCCGGTCTCCC
DNA 2: TGGTGGCTACGACGGGATT

Each binder was assayed against T1, RBFOX1 RRM (assay: EMSA; HiTS-Eq, 1 nM pool, 10 min; buffer printed only for the single-RNA assays: 10 mM Tris pH 7.5, 150 mM NaCl, 3.4 mM EDTA, 0.001% NP-40, 30 C). Details: tags: His6 N-terminal (pET28a); label: 5' 32P.
Procedure, shortened: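 A pool of RNA with 7 randomized nucleotides, 5′-radiolabelled and with DNA-annealed flanks, was equilibrated at 1 nM for 10 min in 50 µL with purified RbFox RRM, wild type or mutant, across increasing protein concentrations. Free RNA was separated by 8% native PAGE, excised, reverse-transcribed, barcoded by PCR and sequenced. Relative association constants were obtained from read-count changes of each RNA species versus the control reaction and normalised to the cognate motif.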

| Binder | binding signal |
| --- | --- |
| B1 | 0.0103 KA relative to UGCAUGU |
| B2 | 0.00453 KA relative to UGCAUGU |
| B3 | 0.0149 KA relative to UGCAUGU |
| B4 | 0.00317 KA relative to UGCAUGU |
| B5 | 0.0143 KA relative to UGCAUGU |
| B6 | 0.0234 KA relative to UGCAUGU |
| B7 | 0.0037 KA relative to UGCAUGU |
| B8 | 0.00513 KA relative to UGCAUGU |
| B9 | 0.0117 KA relative to UGCAUGU |
| B10 | 0.00218 KA relative to UGCAUGU |
| B11 | 0.0107 KA relative to UGCAUGU |
| B12 | 0.0191 KA relative to UGCAUGU |
| B13 | 0.00926 KA relative to UGCAUGU |
| B14 | 0.0127 KA relative to UGCAUGU |
| B15 | 0.0172 KA relative to UGCAUGU |
| B16 | 0.00766 KA relative to UGCAUGU |

| Binder | binding signal |
| --- | --- |
| B17 | 0.0107 KA relative to UGCAUGU |
| B18 | 0.0159 KA relative to UGCAUGU |
| B19 | 0.0157 KA relative to UGCAUGU |
| B20 | 0.00699 KA relative to UGCAUGU |
| B21 | 0.00352 KA relative to UGCAUGU |
| B22 | 0.0228 KA relative to UGCAUGU |
| B23 | 0.0039 KA relative to UGCAUGU |
| B24 | 0.0029 KA relative to UGCAUGU |
| B25 | 0.00529 KA relative to UGCAUGU |
| B26 | 0.0193 KA relative to UGCAUGU |
| B27 | 0.0146 KA relative to UGCAUGU |
| B28 | 0.0128 KA relative to UGCAUGU |
| B29 | 0.0221 KA relative to UGCAUGU |
| B30 | 0.0128 KA relative to UGCAUGU |
| B31 | 0.00566 KA relative to UGCAUGU |
